PubChem BioAssay AID588855 (National Center for Advancing Translational Sciences (NCATS), 2011)
Values joined by “and” are separate entries in the source; they are usually repeats but may differ in a detail not shown here. Identical values can stand only once. About 5,000 (1.2%) of roughly 410,000 compounds were called active. The inconclusive results got no clear call from the source; some entries with a clear call stand among them for comparison. Calls follow the shape of the dose curve; as a rule, active = well fitted inhibition curve with a large enough effect; inconclusive = small, poorly fitted or top-dose-only effect; inactive = no such curve, though single readings can be large or run the other way. A potency beside an inconclusive call is a rough fit, not a confirmed value.

Assay: qHTS for Inhibitors of TGF-b; also: nearly all actives have a fitted effect of over 65% in size
Conditions: HepG2 CAGA-GFP TGF-b/SMAD3 reporter, GFP fluorescence, 18 h, TGF-beta stimulated, 500 pg/mL final; series mostly up to 46.1 µM
Procedure, shortened: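 Cell-based qHTS in HEPG2 carrying a CAGA-GFP Smad reporter; compounds added before 500 pg/mL final TGF-beta, 18 h incubation at 37 degrees C, GFP fluorescence quantified per cell by imaging cytometry.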
Potency is read from the fitted curve at half-maximal effect; tags tell the direction and shape of the fitted curve.

Row | Structure (SMILES) | Potency
1 | CC(C(=O)Nc1ccc(C#N)cc1)N1CCN(C(=O)C2CC2)CC1 (centres undefined) | inactive
2 | C=CCN1c2ccccc2[C@]23C[C@@H](C(=O)OC)N(C(=O)c4cccs4)C2=NC(C(=O)OC)=C(C(=O)OC)[C@H]13 | inconclusive: 35.5 µM [inhibitor, single point]
3 | C=C[C@@H]1c2ccccc2N(S(=O)(=O)c2ccc(C)cc2)[C@H](c2ccc(C(F)(F)F)cc2)C1(C#N)C#N | inconclusive: 12.6 µM [inhibitor, partial curve, poor fit] and inconclusive: 6.31 µM [inhibitor, single point]
4 | CC(C)n1c(O)c(N=NC(=O)CNC(=O)Cc2ccc(Cl)cc2)c2ccccc21 | inactive
5 | O=C(c1ccc(OC2CCN(Cc3ccccc3C(F)(F)F)CC2)cc1)N1CCCCC1 | inconclusive: 11.2 µM [inhibitor, partial curve, poor fit]
6 | COc1cc(C(C#N)N2N=C(c3ccccc3)CC2c2ccccc2)ccc1O (centres undefined) | inactive
7 | CCCN(CCC)CCCNC(=S)Nc1ccc2nc(N3CCCC3)cc(C)c2c1 | inconclusive: 35.5 µM [inhibitor, single point]
8 | Cc1ccccc1NC(=O)Cn1nnc(C(=O)NCc2ccco2)c1N | inactive
9 | CCS(=O)(=O)N1CCN(c2ccc(C(=O)NC3C4CC5CC(C4)CC3C5)cc2[N+](=O)[O-])CC1 (centres undefined) | inactive
10 | Cc1cccc(C)c1Nc1nnc(SCC(=O)NCc2cccs2)s1 | inconclusive: 0.562 µM [inhibitor, full curve, poor fit]
11 | NC(=O)C1CCN(c2nc(-c3cccc(Cl)c3)cs2)CC1 | inconclusive: 14.1 µM [inhibitor, partial curve]
12 | Cc1ccc(C)c(N(CC(=O)NC2CCCC2)C(=O)c2oc(C(C)(C)C)cc2C)c1 | inconclusive: 20 µM [inhibitor, single point]
13 | CCn1c2ccccc2c2cc(/C=C3/C=Cc4ccccc43)ccc21 | inactive
14 | COC(=O)c1cc(S(=O)(=O)NCC2CCN(CCc3ccc(OC)cc3)CC2)cn1C | inactive
15 | COc1ccc(C(=O)NC(=S)N2CCNC(=O)C2)cc1Br | inactive
16 | CCOc1ccc(OCC)c(NC(=O)CCCN2C(=S)NC(C)(C)CC2C)c1 (centres undefined) | inactive
17 | CCCS(=O)(=O)NCCc1sc2nc(-c3ccc(Cl)cc3)nn2c1C | inconclusive: 5.01 µM [inhibitor, partial curve]
18 | Cc1cc(C(=O)Nc2ccc(Cl)cc2)c2c(C)nn(-c3ccccc3)c2n1 | inconclusive: 3.98 µM [inhibitor, single point]
19 | COc1cc2[nH]c(=S)n(Cc3ccco3)c(=O)c2cc1OC | inactive
20 | O=C(c1ccco1)N1CCN(C(=O)C2CCCc3c2[nH]c2ccc(Cl)cc32)CC1 (centres undefined) | active: 1 µM
21 | O=C1/C(=C\c2ccc(Cl)cc2)CCC1CNc1ccc(Cl)cc1 (centres undefined) | inactive
22 | O=[N+]([O-])c1ccc(OCc2cnc(Cl)s2)c([N+](=O)[O-])c1 | inactive

Row | Structure (SMILES) | Potency
23 | Cc1nc2ccccc2c2oc(C(=O)NCc3ccc4c(c3)OCO4)cc12 | inconclusive: 35.5 µM [inhibitor, single point]
24 | c1ccc(CNc2ccc(CNc3ncn[nH]3)cc2)cc1 | inconclusive: 1.26 µM [inhibitor, full curve, poor fit]
25 | Cc1[nH]c2ccccc2c1C1(O)C(=O)N(Cc2ccccc2)c2ccc(Br)cc21 (centres undefined) | inconclusive: 14.1 µM [inhibitor, partial curve, poor fit]
26 | O=C(O)CN1C(=O)/C(=C\c2cc(Br)ccc2OCc2ccc(Cl)cc2)SC1=S | inconclusive: 17.8 µM [inhibitor, single point]
27 | COc1cc(/C=C2\COC/C(=C\c3cc(OC)c(OC)c(OC)c3)C2=O)cc(OC)c1OC | active: 0.631 µM
28 | COc1ccccc1CNc1ncnc2onc(-c3ccc(Cl)cc3)c12 | inactive
29 | Cc1oc(-c2ccc(Cl)cc2)nc1CN1CCCC(C(=O)NCc2cccnc2)C1 (centres undefined) | inconclusive: 10 µM [inhibitor, partial curve]
30 | COc1ccccc1-c1cc(NC(C)=O)c2ncc(-c3ccccc3)n2c1 | inconclusive: 31.6 µM [inhibitor, single point]
31 | OC(c1ccc(-c2ccccc2)cc1)c1ncc(-c2ccc(F)cc2)[nH]1 (centres undefined) | inconclusive: 35.5 µM [inhibitor, single point]
32 | O=C(CN1C(=O)COc2ccc(S(=O)(=O)NC3CCCC3)cc21)Nc1ccc(F)c(Cl)c1 | active: 12.6 µM
33 | O=[N+]([O-])c1ccc(NN=Cc2ccccc2O)nc1 | inconclusive: 35.5 µM [inhibitor, single point]
34 | COc1cc2c(cc1OC)C(C)N(C(=O)c1cccc([N+](=O)[O-])c1)CC2 (centres undefined) | inactive
35 | CSc1c(CC(=O)Nc2ccccc2)n(C)c2ccccc12 | inactive
36 | COc1ccccc1-c1nnc(SCC(=O)O)n1-c1ccc(C)cc1 | inconclusive: 3.98 µM [inhibitor, partial curve, poor fit]
37 | Cc1ccccc1OCC(O)CN1CCN(CC(O)COc2ccccc2C)C(C)C1 (centres undefined) | inconclusive: 11.2 µM [inhibitor, single point]
38 | Cc1nnc(SCC(=O)NCc2cccc(F)c2)c2nn(-c3ccccc3)c(C)c12 | inconclusive: 35.5 µM [inhibitor, single point]
39 | O=C(Nc1ccc2c(c1)CCC2)c1ccc(Br)o1 | inactive
40 | COc1ccc(-c2[nH]nc3nc(N4CCN(C(=O)c5ccoc5)CC4)cc(C(F)(F)F)c23)cc1 | inconclusive: 35.5 µM [inhibitor, single point]
41 | COc1ccc(Cl)cc1NC(=O)CN1C(=O)NC(Cc2c[nH]c3ccccc23)C1=O (centres undefined) | inconclusive: 0.708 µM [inhibitor, partial curve, poor fit]
42 | O=C(NCCn1cc(SCc2ccc(C(F)(F)F)cc2)c2ccccc21)c1cccs1 | inconclusive: 2.82 µM [inhibitor, full curve, poor fit]
43 | COc1ccc(-n2nc3c(N4CCCC(C(=O)NCc5ccccc5C)C4)nnc(C)c3c2C)cc1 (centres undefined) | active: 5.01 µM
44 | O=C(NCC1CCOCC1)C1CCC(=O)N(Cc2cccc(C(F)(F)F)c2)C1 (centres undefined) | inactive
